Test results taken from PubChem BioAssay AID588855 (National Center for Advancing Translational Sciences (NCATS), 2011).
“And” between values parts separate entries of the source, which are not always exact repeats. Identical values can stand only once. Screen size: about 410,000 compounds; about 5,000 (1.2%) were called active. This list was built around the results that the source calls inconclusive (neither active nor inactive); the mix of calls is not that of the screen. Calls come from the whole dose curve; as a rule, active = well fitted inhibition curve with a large enough effect; inconclusive = small, poorly fitted or top-dose-only effect; inactive = no such curve, though single readings can be large or run the other way. Where the call is inconclusive, the potency comes from a doubtful curve fit.

assay: qHTS for Inhibitors of TGF-b; conditions: HepG2 CAGA-GFP TGF-b/SMAD3 reporter, GFP fluorescence, 18 h, TGF-beta stimulated, 500 pg/mL final; series mostly up to 46.1 µM; activity, negative = inhibition: at the top concentration; note: nearly all actives have a fitted effect of over 65% in size
How it was run: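 Inhibition of TGF-beta-driven CAGA-GFP reporter expression in HEPG2 cells is measured by cellular GFP fluorescence after 18 h stimulation with 500 pg/mL recombinant TGF-beta in 1% FBS medium at 37 degrees C.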
% is set by controls: 0 for no effect and ±100 for the full control effect; potency is the fitted concentration of half-maximal effect; tags give direction and shape of the fitted curve.

SMILES	activity, negative = inhibition	Potency
O=C(N/N=C/c1ccc(Br)s1)c1cccc([N+](=O)[O-])c1	inactive: -0.196%	–
CCc1ccc(S(=O)(=O)c2nnn3c2nc(Nc2cccc(C)c2C)c2sccc23)cc1	inactive: 43.4%	–
CC1(C)C2CCC1(C)C1(C2)NC(=O)c2ccccc2O1 (centres undefined)	inactive: -11.7%	–
CC1(c2nnc(-c3ccc(F)cc3)o2)CC(c2c(Cl)cccc2Cl)=NO1 (centres undefined)	–	inconclusive: 35.5 µM [inhibitor, single point]
COc1ccc(C(=O)Nc2cc(C(=O)NCCc3ccccc3)ccc2Cl)cc1	–	inconclusive: 3.55 µM [inhibitor, full curve, poor fit]
C/C(CCC12CC3CC(CC(C3)C1)C2)=N\NC(N)=S	–	inconclusive: 17.8 µM [inhibitor, partial curve, poor fit]
CN(C)CCCn1cnc2c(c1=N)C(c1ccccc1)c1ccc3ccccc3c1O2 (centres undefined)	–	inconclusive: 35.5 µM [inhibitor, single point]
CCCCNC(=O)CNC(=S)N(Cc1ccccc1)Cc1cccs1	inactive: -27.3%	–
CCOC(=O)C1=C(c2ccc(OC)cc2)C(=O)c2ccccc2C1=O	–	inconclusive: 8.91 µM [inhibitor, partial curve, poor fit]
COc1ccc(OC)c(CCNC(=O)C(C)n2nc(C)c3c(C)n(-c4ccc(C)cc4)nc3c2=O)c1 (centres undefined)	–	inconclusive: 10 µM [inhibitor, partial curve, poor fit] and inconclusive: 3.98 µM [inhibitor, full curve, poor fit]
O=C(Nc1ccccc1-c1ccccc1)C1CCCCC1	inactive: 3.06%	–
CCN(CC)CCNc1nc(-c2ccc(OC)cc2)c(-c2ccc(OC)cc2)s1	–	inconclusive: 35.5 µM [inhibitor, single point]
CC(C)(C)c1cc(NCCCn2ccnc2)n2ncc(-c3ccccc3)c2n1	–	inconclusive: 17.8 µM [inhibitor, single point]
CC1CCCN(CC(=O)Nc2cccc([N+](=O)[O-])c2)C1 (centres undefined)	inactive: 4.48%	–
CSc1ccccc1NC(=O)CCS(=O)(=O)c1nc(-c2cccs2)cc(C(F)(F)F)n1	inactive: 4.38%	–
CCC(C)c1ccc(O)c(NC(=O)c2cncc(Br)c2)c1 (centres undefined)	–	inconclusive: 22.4 µM [inhibitor, single point]
C=CCn1c(=O)c2c3c(sc2n2c(Nc4ccccc4)nnc12)CCCC3	–	inconclusive: 35.5 µM [inhibitor, single point]
CCN(C(=O)CSc1n[nH]c(-c2cccs2)n1)C1CCS(=O)(=O)C1 (centres undefined)	–	inconclusive: 0.708 µM [inhibitor, full curve]
CCN(CC(=O)Nc1c(F)cccc1F)C(=O)CCNC(=O)c1ccccc1OC	–	inconclusive: 3.16 µM [inhibitor, partial curve, poor fit]
